# Values joined by “and” are separate entries in the source; they are usually repeats but may differ in a detail not shown here. Equal entries are not always repeated. About 4,500 (2.2%) of roughly 200,000 compounds were called active. The shares of active, inactive and inconclusive entries below differ from those in the screen. The call rests on the fitted dose curve; in most records, active means well fitted inhibition curve with a large enough effect; inconclusive means small, poorly fitted or top-dose-only effect, or effect the other way; inactive means flat fitted curve, though single readings scatter. Potencies beside an inconclusive call are fits to weak or partial responses and may not hold up. Where a structure was tested more than once in an assay, its records may differ in their call.
# Target: Cruzipain (Trypanosoma cruzi) (UniProt P25779)
# Assay: qHTS Assay for Promiscuous and Specific Inhibitors of Cruzain (without detergent); further: nearly all actives have a fitted effect of over 40% in size;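 on max response, negative = inhibition: plate controls were enzyme without inhibitor for no effect and buffer without enzyme for full effect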
# Settings: purified cruzain, Z-FR-AMC fluorescence, no detergent
# Outline: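 Detergent-free condition (0.00005% Triton X-100) in acetate buffer pH 5.5 with DTT. 1.5 nM enzyme and compound were pre-mixed 15 min, then 2 uM Z-FR-AMC substrate added; reaction progress from fluorescence change between first and third reads (60 s).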
# Potency means the concentration at half of the fitted maximal effect; tags describe the fitted curve by direction and shape.
# Chain of UniProt P25779 (P25779 whole entry, looked up): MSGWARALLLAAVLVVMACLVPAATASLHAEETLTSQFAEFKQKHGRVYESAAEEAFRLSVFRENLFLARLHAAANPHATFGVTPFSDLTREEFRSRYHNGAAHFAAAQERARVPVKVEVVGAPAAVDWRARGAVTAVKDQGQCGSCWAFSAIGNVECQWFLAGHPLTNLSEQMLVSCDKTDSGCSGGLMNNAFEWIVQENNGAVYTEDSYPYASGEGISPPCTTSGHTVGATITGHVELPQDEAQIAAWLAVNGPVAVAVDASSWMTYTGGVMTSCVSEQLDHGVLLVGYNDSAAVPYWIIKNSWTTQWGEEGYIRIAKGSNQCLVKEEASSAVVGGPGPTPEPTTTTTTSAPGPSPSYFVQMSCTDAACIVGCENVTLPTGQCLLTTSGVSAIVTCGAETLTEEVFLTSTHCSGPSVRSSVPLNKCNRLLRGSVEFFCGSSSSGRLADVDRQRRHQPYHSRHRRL
Compound,"max response, negative = inhibition",Potency
Cc1ccc(Cl)cc1NC(=O)CCn1cnc2ccccc2c1=O,inactive: -2.58%,
O=C(COC(=O)CNC(=O)C1CCCCC1)Nc1ccc2ccccc2c1,,active: 7.94 µM
CCSc1n[nH]c2nc3c(c(=O)n12)C1(CCCC1)Cc1ccccc1-3,,"inconclusive: 15.8 µM [inhibitor, single point]"
NC(=S)Nc1cccc2cnccc12,inactive: -10.8%,
O=C(NCc1cn2ccccc2n1)c1ccc(Br)o1,,"inconclusive: 31.6 µM [inhibitor, single point]"
CC(C)(C)OC(=O)N1CCC(c2c(C(=O)N3CCN(c4ccccn4)CC3)cnn2-c2cccc(F)c2)CC1,inactive: -9.21%,
COc1ccc(/C=C/c2nc(-c3ccccc3O)n[nH]2)cc1,,active: 12.6 µM
CCN(CC)c1ccc(-c2nn3c(-c4cccnc4)nnc3s2)cc1,,"inconclusive: 31.6 µM [activator, single point]"
Cc1ccc(CNC(=O)c2cn(C3CCCC3)c(=O)c3c2c2ccccc2n3C)o1,,"inconclusive: 39.8 µM [activator, single point]"
COc1ccccc1N1CCN(C(=O)c2ccc3c(c2)N(Cc2cc(C)ccc2C)C(=O)c2ccccc2S3(=O)=O)CC1,,"inconclusive: 12.6 µM [activator, partial curve]"
COc1cccc(-c2ccc3ncnc(NCCc4c[nH]c5ccc(OC)cc45)c3c2)c1,,"inconclusive: 25.1 µM [inhibitor, single point]"
Cc1ccc(S(=O)(=O)N/N=C2/CC(c3ccccc3)Oc3ccccc32)cc1 (configuration not stated),,active: 25.1 µM
O=C(Nc1nc(-c2ccccc2)ns1)c1ccc(Cl)cc1,,"inconclusive: 6.31 µM [inhibitor, single point]"
CCOC(=O)Cn1nnnc1C(C(C)C)N(Cc1cccs1)Cc1cc2cc(C)ccc2[nH]c1=O (configuration not stated),,"inconclusive: 31.6 µM [activator, single point]"
O=C1C2C3C=CC(C4CC34)C2C(=O)N1/N=C/c1ccc(-c2ccc(Cl)cc2[N+](=O)[O-])o1 (configuration not stated),,"inconclusive: 31.6 µM [inhibitor, single point]"
CN(C)c1ccc(C(=C2C=CC(=[N+](C)C)C=C2)c2ccc(N(C)C)cc2)cc1,,active: 20 µM
O=C(C1CCC(Cn2c(=O)c3sccc3n(Cc3ccccc3F)c2=O)CC1)N1CCOCC1 (configuration not stated),,"inconclusive: 31.6 µM [activator, single point]"
COc1cc(NC(=O)c2cc3c(=O)n(Cc4ccco4)ccc3nc2C)cc(OC)c1OC,inactive: 20.6%,
COc1cccc(NC(=O)CN2C(=O)CC(c3ccco3)Sc3ccccc32)c1 (configuration not stated),inactive: 0.312%,
Cc1ccc(OCCSCc2nnc(NC(=O)Nc3cccc(Cl)c3)s2)cc1,,active: 15.8 µM
COc1ccc(-c2cccc(-c3cc(=O)oc4ccc(C(C)(C)C)cc34)c2)cc1,,active: 35.5 µM

Compound,"max response, negative = inhibition",Potency
COCCn1nnnc1C(c1ccc(OC)cc1OC)N1CCN(c2ccccc2F)CC1 (configuration not stated),,"inconclusive: 39.8 µM [activator, single point]"
COc1ccccc1NC(C)C(=O)N/N=C/c1ccccc1OCc1cccc(Br)c1 (configuration not stated),,"inconclusive: 39.8 µM [inhibitor, single point]"
Cc1ccc(N2CCN(C(=O)c3cn(C)c4ccc(S(=O)(=O)N5CCCC5)cc4c3=O)CC2C)cc1 (configuration not stated),,"inconclusive: 31.6 µM [activator, single point]"
Cc1cc(Nc2cccc(Br)c2)n2c(nc3ccccc32)c1C#N,inactive: -12.2%,
O=C(Cn1c2ccccc2c(=O)c2ccccc21)N/N=C/c1cc([N+](=O)[O-])ccc1N1CCCCC1,,active: 10 µM
COc1ccc(NC(=O)Cn2nnc(C(=O)NCc3ccco3)c2N)c(OC)c1,,"inconclusive: 39.8 µM [inhibitor, single point]"
COc1ncc2ncc(=O)n(CCC#N)c2n1,inactive: 4.27%,
Cc1cccc(NC(=O)CSc2nnc(CCC(=O)Nc3ccc(C)c(Cl)c3)n2C)c1,,"inconclusive: 39.8 µM [inhibitor, single point]"
CCc1ccc(NC(=O)CSc2nc3cc(C(=O)OC)ccc3c(=O)n2CC2CCCO2)cc1 (configuration not stated),,"inconclusive: 5.01 µM [activator, full curve]"
CCc1ccc(NC(=O)N2CCN(Cc3nc4ccc(C)cc4o3)CC2)cc1,,"inconclusive: 31.6 µM [activator, single point]"
CCOC(=O)c1c(-c2ccccc2)csc1NC(=O)c1cccc(N2C(=O)CCC2=O)c1,,"inconclusive: 31.6 µM [activator, single point]"
CCN(CC)S(=O)(=O)c1cc([N+](=O)[O-])ccc1NNC(=O)Nc1ccc(Cl)c(Cl)c1,,"inconclusive: 31.6 µM [inhibitor, single point]"
O=C(CSc1nnc(Cc2ccccc2)o1)Nc1ccc(Br)cn1,,"inconclusive: 39.8 µM [inhibitor, single point]"
CCCCn1c(NC(=O)c2ccccc2Cl)c(C#N)c2nc3ccccc3nc21,,"inconclusive: 31.6 µM [activator, single point]"
Clc1ccc(N2CCN(Cc3c[nH]c4ncccc34)CC2)cc1,inactive: -6.81% and inactive: -4.12%,
Cc1cc(C)cc(-n2c(C)cc(/C=N/NC(=O)c3cccc([N+](=O)[O-])c3C)c2C)c1,,"inconclusive: 31.6 µM [inhibitor, single point]"
CC1=Nc2cc(C(=O)NCc3ccc(C)cc3)ccc2Sc2ccc(Cl)cc21,,"inconclusive: 31.6 µM [inhibitor, single point]"
Cc1ccc(CNC(=O)C2CCN(S(=O)(=O)Cc3ccccc3)CC2)cc1,inactive: 1.8%,
Cc1ccccc1CSc1nnc(NC(=O)C2COc3ccccc3O2)s1 (configuration not stated),,"inconclusive: 39.8 µM [inhibitor, single point]"
CCc1nnc(NC(=O)CSc2nc(-c3ccccc3)nc3ccccc23)s1,,"inconclusive: 39.8 µM [inhibitor, single point]"
Cc1ccc(NC(=O)COc2ccc(-c3nn(C)c(=O)c4ccccc34)cc2)cc1,,"inconclusive: 39.8 µM [activator, single point]"

# Source: PubChem BioAssay AID1476 (National Center for Advancing Translational Sciences (NCATS), 2009)
